Here are results for four compounds from article PMC11414077, “Novel thiazole-based cyanoacrylamide derivatives: DNA cleavage, DNA/BSA binding properties and their anticancer behaviour against colon and breast cancer cells” (BMC Chemistry, 2024).

For test [1], the system named is pBR322 plasmid DNA. The conditions noted are these: 200 μM, 30 min at 37°C followed by irradiation at 365 nm for 60 min.
A further test has as its system HCT116 cells. Nature of the test: MTT cell viability assay, HCT116. The test is classed as cell-based. Particulars: Homo sapiens, HCT-116, 20 min; HCT116, illumination at 365 nm for 20 min. The method, then: (§1) The cytotoxicity of 3b and 3c against MDA-MB-231 and HCT116 cell lines, with and without illumination, was assessed using the MTT test. Two human cancer cell lines, including MDA-MB-231 and HCT116 cell lines, were purchased from the National Research Centre, Dokki, Cairo, Egypt. Briefly, 96-well plates were seeded with cells (5 × 10^3 cells/well) and left overnight. The compounds dissolved in DMSO were then applied to the cells following the serial dilution procedure in the range of 0–100 µM. The cells were then incubated for an additional 20 h. Subsequently, the cells were exposed to UV light for 20 min at a distance of 10 cm. To study the effects of the illumination, a control plate was created under the same circumstances but without illumination. The two plates were incubated for a further 20 h. After that, PBS was used to wash the cells and MTT solution (0.5 mg/ml) was added. To dissolve the generated formazan crystals, the solution was replaced with 100 µl of DMSO per well after 4 h of incubation. An ELISA reader operating at 492 nm was used to measure the absorbance after 15 min of plate shaking. By relating the absorbance of treated and negative control cells, the relative cell viability was calculated. GraphPad Prism software was used to calculate the half inhibitory concentration (IC50). […]

Test [2] relates to pBR322 plasmid DNA. In words: Mechanistic pBR322 DNA photo-cleavage with radical scavengers. The conditions noted are these: 200 μM compound, irradiation at 365 nm; for photocleavage activity in the presence of DMSO (hydroxyl radical scavenger): DMSO 200 mM; for photocleavage activity in the presence of KI (superoxide radical scavenger): KI 200 mM; for photocleavage activity in the presence of NaN3 (singlet oxygen scavenger): NaN3 200 mM. The test is classed as biochemical.

For a further test, the system named is MDA-MB-231 cells. In words: MTT cell viability assay, MDA-MB-231. It counts as cell-based. Particulars: Homo sapiens, 20 min; MDA-MB-231, illumination at 365 nm for 20 min. On the procedure: as §1

Consider `Cc1ccc(-c2nn(-c3ccccc3)cc2C=C(C#N)C(=O)Nc2nccs2)cc1` [Compound 3d, 2-Cyano-3-(1-phenyl-3-(p-tolyl)-1H-pyrazol-4-yl)-N-(thiazol-2-yl)acrylamide], for which the DNA photocleavage activity entry with pBR322 plasmid DNA [1] is “non-detectable DNA cleavage”.

As to “2-Cyano-3-(1,3-diphenyl-1H-pyrazol-5-yl)-N-(thiazol-2-yl)acrylamide [Compound 3a]”, the DNA photocleavage activity result with pBR322 plasmid DNA [1] is “non-detectable DNA cleavage”.

What is called IC50 is the point on the concentration scale where inhibition reaches its midpoint. In turn, `N#CC(=Cc1cn(-c2ccccc2)nc1-c1cccnc1)C(=O)Nc1nccs1` [Compound 3c, 2-Cyano-3-(1-phenyl-3-(pyridin-3-yl)-1H-pyrazol-4-yl)-N-(thiazol-2-yl)acrylamide] registered an IC50 in the test on HCT116 cells of 25 µM. Moreover, in the test on pBR322 plasmid DNA [2], the “photocleavage activity in the presence of DMSO (hydroxyl radical scavenger)” value is on record as “did not influence”, the “photocleavage activity in the presence of KI (superoxide radical scavenger)” value was “total hindrance” and the “photocleavage activity in the presence of NaN3 (singlet oxygen scavenger)” value was “total hindrance”. Also, the DNA photocleavage activity result in the test with pBR322 plasmid DNA [1] is “remarkable photocleavage activity”. In the test on MDA-MB-231 cells, this compound registered a 50% inhibitory concentration (IC50) of 9 µM.

`N#CC(=Cc1cn(-c2ccccc2)nc1-c1cccs1)C(=O)Nc1nccs1` [Compound 3b, 2-Cyano-3-(1-phenyl-3-(thiophen-2-yl)-1H-pyrazol-4-yl)-N-(thiazol-2-yl)acrylamide]: in the test with HCT116 cells, 23 µM corresponded to half-maximal inhibition (IC50). For the same compound, in the test with pBR322 plasmid DNA [2], the “photocleavage activity in the presence of DMSO (hydroxyl radical scavenger)” value is given as “did not influence”, the “photocleavage activity in the presence of KI (superoxide radical scavenger)” value was “total hindrance” and the “photocleavage activity in the presence of NaN3 (singlet oxygen scavenger)” value is “total hindrance”. In addition, in the test with pBR322 plasmid DNA [1], the DNA photocleavage activity result is “remarkable photocleavage activity”. Moreover, the IC50 in the test on MDA-MB-231 cells worked out at 30 µM.
